The whole screen tested about 360,000 compounds, of which about 520 (0.14%) were called active. Inconclusive means that the source gave no clear call. Such entries were picked first, then a sample of the others. Calls follow the shape of the dose curve; as a rule, active = well fitted inhibition curve with a large enough effect; inconclusive = small, poorly fitted or top-dose-only effect; inactive = no such curve, though single readings can be large or run the other way. Potencies of inconclusive entries are left out as doubtful fits.
Target: Rap guanine nucleotide exchange factor 3 (Homo sapiens) (UniProt O95398)
Experiment: qHTS for Antagonist of cAMP-regulated guanine nucleotide exchange factor 3 (EPAC1): primary screen; also: nearly all actives have a fitted effect of over 50% in size;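 as to activity change, negative = inhibition: plate controls were vehicle for no effect and positive control for full effect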
Details: EPAC1 GEF assay, Rap1b-BODIPY-GDP exchange fluorescence; activity change, negative = inhibition: at 115 µM (top of the series)
Potency is read from the fitted curve at half-maximal effect; tags tell the direction and shape of the fitted curve.

Sequence of UniProt O95398 (O95398 whole entry, looked up): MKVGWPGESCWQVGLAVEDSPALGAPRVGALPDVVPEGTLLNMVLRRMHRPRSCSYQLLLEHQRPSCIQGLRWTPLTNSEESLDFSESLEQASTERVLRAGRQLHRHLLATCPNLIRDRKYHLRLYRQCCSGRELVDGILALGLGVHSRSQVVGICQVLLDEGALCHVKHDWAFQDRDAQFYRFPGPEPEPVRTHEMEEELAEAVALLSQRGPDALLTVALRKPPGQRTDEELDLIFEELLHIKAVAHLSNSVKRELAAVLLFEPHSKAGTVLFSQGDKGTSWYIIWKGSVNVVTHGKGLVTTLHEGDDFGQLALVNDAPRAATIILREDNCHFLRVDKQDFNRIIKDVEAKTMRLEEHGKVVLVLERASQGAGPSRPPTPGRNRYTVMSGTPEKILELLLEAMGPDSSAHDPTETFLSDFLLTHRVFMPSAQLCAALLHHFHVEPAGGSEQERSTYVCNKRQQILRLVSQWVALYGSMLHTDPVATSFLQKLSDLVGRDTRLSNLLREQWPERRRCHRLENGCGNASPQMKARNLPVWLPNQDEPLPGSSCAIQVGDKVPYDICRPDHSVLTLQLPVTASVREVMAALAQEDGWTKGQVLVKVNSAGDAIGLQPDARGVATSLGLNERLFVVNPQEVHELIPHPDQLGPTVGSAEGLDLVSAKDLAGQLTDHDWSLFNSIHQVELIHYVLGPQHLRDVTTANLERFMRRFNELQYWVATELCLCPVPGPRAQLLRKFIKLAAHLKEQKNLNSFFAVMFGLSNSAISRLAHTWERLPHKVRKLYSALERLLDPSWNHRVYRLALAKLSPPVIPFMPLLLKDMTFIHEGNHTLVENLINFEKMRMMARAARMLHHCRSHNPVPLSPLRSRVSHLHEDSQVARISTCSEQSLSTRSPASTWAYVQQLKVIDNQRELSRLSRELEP

Row | Compound | Potency | activity change, negative = inhibition
1 | CC(C)c1ccc(C(C)NCCS(=O)(=O)c2ccc(Br)cc2)cc1 (stereo not drawn) | inconclusive [inhibitor, full curve, poor fit] | –
2 | CCCSC1=N/C(=C\C=C\c2ccco2)C(=O)S1 | inconclusive [inhibitor, partial curve] | –
3 | CC(C)CC(NC(=O)CC12CC3CC(CC(C3)C1)C2)C(=O)NC1=NCCS1 (stereo not drawn) | inactive | –
4 | COc1ccc(-c2ccc(C(=O)Nc3cccc(Oc4ccccc4)c3)c3occc23)c(C)c1 | inactive | –
5 | COC(=O)[C@@]12CCCCN1[C@H](c1ccc(-c3ccc(OC)cc3)c(OC)c1)[C@@H]1C(=O)N(C)C(=O)[C@@H]12 | inconclusive [inhibitor, partial curve] | –
6 | CCC(=O)OC1(C)C(=O)C=C2C=C(CCCC(=O)OC)OC=C2C1=O (stereo not drawn) | inconclusive [inhibitor, single point] | –
7 | C/C(=N\Nc1ccc(S(N)(=O)=O)cc1[N+](=O)[O-])c1ccc2c(c1)OCO2 | inconclusive [inhibitor, single point] | –
8 | Cc1ccc(Cn2nc(C)c(NC(=O)CSc3n[nH]c(C)c3[N+](=O)[O-])c2C)cc1 | inconclusive [inhibitor, partial curve, poor fit] | –
9 | O=C(NC(=S)Nc1cccc(Cl)c1N1CCCCC1)c1ccc2c(c1)OCCO2 | inactive | –
10 | COCc1cccc(-c2csc(C(O)c3ccc(F)c(F)c3)n2)c1 (stereo not drawn) | inconclusive [inhibitor, single point] | –
11 | CC(C(=O)NC1C=CS(=O)(=O)C1)N1C(=O)/C(=C/c2ccc(Cl)cc2)SC1=S (stereo not drawn) | inconclusive [inhibitor, partial curve, poor fit] | –
12 | CC(C)c1nc(SCC(=O)c2ccccc2)c2c(=O)n(C)c(=O)n(C)c2n1 | inconclusive [inhibitor, single point] | –
13 | CCOc1cccc(/C=N/NC(=O)c2ccc3c(c2)OCCO3)c1O | inconclusive [inhibitor, partial curve] | –
14 | CC(C)(C)OC(=O)NCc1ccc(CNC(=O)c2ncn(Cc3ccccc3)c2C(=O)NCc2ccc(CNC(=O)OC(C)(C)C)cc2)cc1 | inactive | –
15 | Cc1cc(C)cc(NC(=S)NC(=O)Cc2ccccc2)c1 | inconclusive [inhibitor, full curve, poor fit] | –
16 | COc1ccc(C(=O)NCc2c(C)nn(Cc3ccccc3)c2C)cc1S(=O)(=O)N1CCOCC1 | – | inconclusive: -8.94% [inhibitor]
17 | CCCCCc1ccc(OCCCC[n+]2cccc(C)c2)c(CCCCC)c1 | inconclusive [inhibitor, single point] | –
18 | C#CC(=O)N(c1ccc(OC)cc1OC)C(C(=O)NC1CCCC1)c1cccs1 (stereo not drawn) | inconclusive [inhibitor, partial curve, poor fit] | –
19 | CC(C)CNC(=S)N(CCN(C)C)Cc1cc2cc3c(cc2[nH]c1=O)OCO3 | inconclusive [inhibitor, partial curve] | –
20 | CC(=O)Nc1ccc2[nH]ccc2c1 | inactive | –
21 | Cc1cc(Cl)c2oc(C(=O)N(C)C3CCOC3)c(C)c2c1 (stereo not drawn) | inconclusive [inhibitor, single point] | –
22 | Cc1ccccc1/C=C/C(=O)c1ccc([N+](=O)[O-])o1 | inactive | –

Row | Compound | Potency | activity change, negative = inhibition
23 | CCCCN(C(=O)c1cccc(-n2cccc2)c1)c1c(N)n(CCCC)c(=O)[nH]c1=O | inconclusive [inhibitor, full curve, poor fit] | –
24 | Oc1ccccc1CN(Cc1ccco1)CC(O)COCc1ccc(Cl)cc1 (stereo not drawn) | inconclusive [inhibitor, partial curve] | –
25 | Cn1c(=O)c2[nH]c(=S)n(Cc3ccccc3)c2n(C)c1=O | inactive | –
26 | Cc1ccc(N(CC(=O)NC2CCCC2)C(=O)CNC(=O)c2cccs2)cc1C | inconclusive [inhibitor, partial curve] | –
27 | Cc1onc(-c2ccccc2Cl)c1C(=O)c1ccccc1 | inactive | –
28 | COc1ccccc1N1CCN(C(=O)Oc2ccccc2)CC1 | inactive | –
29 | Cc1c(C(=O)N2CCC(n3nccc3NC(=O)C3CC3)CC2)[nH]c2ccc(Cl)cc12 | inconclusive [inhibitor, partial curve] | –
30 | O=C(NCCO)c1ccc2nc(-c3ccco3)c(-c3ccco3)nc2c1 | inconclusive [inhibitor, partial curve] | –
31 | CCC1(C)NC(=O)N(CC(=O)Nc2cc(C)on2)C1=O (stereo not drawn) | inactive | –
32 | CCOc1ccccc1CNC(=O)C1Cc2cc(S(=O)(=O)N3CCCCC3)ccc2N1C(C)=O (stereo not drawn) | inconclusive [inhibitor, partial curve] | –
33 | COc1ccc2oc(/C=C/N(C)C)c(C(=O)c3ccc(Cl)cc3)c2c1 | inconclusive [inhibitor, single point] | –
34 | Cc1cccc(NC(=O)CCSc2nc(C)cc(C)n2)c1 | inconclusive [inhibitor, single point] | –
35 | CCCN1C(=O)S/C(=C\c2ccc(N3CCOCC3)o2)C1=O | inactive | –
36 | CCN1CCCc2cc(CN(CCN3CCOCC3)C(=O)Nc3ccc(C)c(C)c3)ccc21 | inconclusive [inhibitor, partial curve] | –
37 | COC(=O)/C(=C/c1ccc(F)cc1)NC(C)=O | inconclusive [inhibitor, partial curve] | –
38 | COc1cc(N2N=C(c3ccccc3)CC2c2ccccc2)c(C=O)cc1C=O (stereo not drawn) | inconclusive [inhibitor, single point] | –
39 | O=S(=O)(Nc1ncnc2sc3c(c12)CCC3)c1ccc(Cl)s1 | – | inconclusive: -20.6% [inhibitor]
40 | Cc1ccc2nc(-c3ccccn3)c(Nc3ccccc3C)n2c1 | inconclusive [inhibitor, partial curve] | –
41 | COCCSc1ccccc1C(=O)Nc1nccs1 | inactive | –
42 | CCc1c(C2(O)CCCCC2)[nH]c2c(C(=O)OC)cc(Cl)cc12 | inconclusive [inhibitor, single point] | –
43 | O=[N+]([O-])c1ccc(NN=CCCc2ccccc2)nc1 | inconclusive [inhibitor, single point] | –

Reference: PubChem BioAssay AID720709 (National Center for Advancing Translational Sciences (NCATS), 2013)
